Laboratory results published in PMC4336329 (PLoS ONE, 2015).
Out of some 310,000 compounds screened, about 14,000 (4.5%) showed an effect of 50% or more. Effects have a minus sign here. Some of the results follow.

Target: human ether-à-go-go-related gene (hERG) potassium channel (human, UniProt Q12809)
Test: primary screen, population patch clamp on CHO cells stably expressing hERG
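Also: peak tail current of the secondary pulse compared with the same well before compound.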

Sequence of human ether-à-go-go-related gene (hERG) potassium channel (Q12809 whole entry, looked up): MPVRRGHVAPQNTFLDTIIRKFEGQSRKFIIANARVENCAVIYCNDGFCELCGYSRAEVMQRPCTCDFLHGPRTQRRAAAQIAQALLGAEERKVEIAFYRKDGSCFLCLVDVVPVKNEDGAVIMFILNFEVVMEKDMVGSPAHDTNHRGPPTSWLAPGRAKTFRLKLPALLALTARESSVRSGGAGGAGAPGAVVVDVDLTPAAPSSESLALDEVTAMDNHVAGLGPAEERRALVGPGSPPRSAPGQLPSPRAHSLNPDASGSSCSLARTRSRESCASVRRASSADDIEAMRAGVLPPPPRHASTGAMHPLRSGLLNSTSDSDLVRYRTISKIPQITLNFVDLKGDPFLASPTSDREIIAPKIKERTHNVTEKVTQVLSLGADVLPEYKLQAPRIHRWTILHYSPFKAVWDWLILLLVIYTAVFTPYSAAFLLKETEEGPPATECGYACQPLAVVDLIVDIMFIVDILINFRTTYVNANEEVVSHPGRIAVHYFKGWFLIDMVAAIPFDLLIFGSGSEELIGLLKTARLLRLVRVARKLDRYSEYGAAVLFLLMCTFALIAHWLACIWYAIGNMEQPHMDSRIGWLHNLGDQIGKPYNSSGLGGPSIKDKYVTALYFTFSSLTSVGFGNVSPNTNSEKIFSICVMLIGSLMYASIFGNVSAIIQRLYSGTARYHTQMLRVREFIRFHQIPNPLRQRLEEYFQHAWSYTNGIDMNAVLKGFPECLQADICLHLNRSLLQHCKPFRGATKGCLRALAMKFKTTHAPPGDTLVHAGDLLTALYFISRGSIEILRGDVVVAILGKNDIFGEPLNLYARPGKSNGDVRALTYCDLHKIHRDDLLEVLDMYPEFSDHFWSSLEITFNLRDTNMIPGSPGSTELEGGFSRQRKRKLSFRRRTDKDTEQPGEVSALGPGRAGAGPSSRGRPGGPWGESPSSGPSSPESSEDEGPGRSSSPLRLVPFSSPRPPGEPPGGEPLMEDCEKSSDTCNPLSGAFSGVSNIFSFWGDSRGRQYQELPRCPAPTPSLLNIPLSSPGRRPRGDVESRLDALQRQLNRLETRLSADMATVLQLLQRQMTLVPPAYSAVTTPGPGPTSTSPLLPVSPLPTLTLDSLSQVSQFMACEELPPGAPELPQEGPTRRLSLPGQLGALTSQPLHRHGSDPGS

| Compound | hERG current change (%, negative = inhibition) at 10uM |
| --- | --- |
| CCC(C(=O)NCCCN1CC(C)CC(C)C1)n1ncn2c(cc3occc32)c1=O (stereo not shown) | -11.3% |
| Nc1c(C(=O)NCc2ccc(F)cc2)c2nc3ccccc3nc2n1CCCN1CCOCC1 | 0.0395% |
| Cc1ccc(=O)n(-c2ccccc2)c1 | -0.456% |
| COc1ccc2oc(C(=O)OCC(=O)N(C)C3CCS(=O)(=O)C3)c(C)c2c1 (stereo not shown) | -16.2% |
| O=C1C2C3C=CC(C3)C2C(=O)N1Nc1ccc([N+](=O)[O-])cc1[N+](=O)[O-] (stereo not shown) | 3.34% |
| Cc1ccnc(NC(=O)c2ccc(Cl)c([N+](=O)[O-])c2)c1 | 3.55% |
| COc1ccc(C2c3[nH]c4ccccc4c3CCN2Cc2cccn2-c2ncccn2)cc1C (stereo not shown) | -52% |
| Cn1ccnc1SCC(=O)c1cccc(C(F)(F)F)c1 | -27.8% |
| COc1ccc(CCNC(=S)Nc2cc(C)cc(C)c2)cc1 | 1.9% |
| Cc1ccsc1/C=N/NC(=O)c1ccc2c(c1)OCCO2 | 8.41% |
| O=C(NNC(=O)c1nc(Cl)ccc1Cl)c1ccc(F)cc1 | -10.4% |
| CNC(=S)Nc1ccc(OC)c(OC)c1 | 3.55% |
| CC1(C)CC(=O)C(C2=NC3(CCCCC3)Cc3ccccc32)=C(O)C1 | 10.4% |
| O=C(N[C@@H](Cc1ccccc1)C(=O)OCc1ccccc1)c1nc[nH]c1C(=O)N[C@@H](Cc1ccccc1)C(=O)OCc1ccccc1 | 8.2% |
| O=C(NCc1ccc(Cl)cc1)C(=O)NCC1OCCN1C(=O)c1ccc(Cl)cc1 (stereo not shown) | -4.88% |
| OCC[C@@H]1C[C@H](O)[C@@H](O)[C@]2(OCCc3ccccc32)O1 | 17.5% |
| N#C/C(=N\[O-])c1nc(-c2ccccc2)cs1.[K+] | -8.69% |
| O=C(/C=C\c1cn(-c2ccccc2)nc1-c1ccc2c(c1)OCCO2)N1CCOCC1 | 2.39% |
| CCOc1ccc(NC(=O)c2ccc(CNc3c(N4CCCC4)c(=O)c3=O)cc2)cc1 | 5.86% |
| Cc1ccccc1S(=O)(=O)NCc1cccnc1 | 5.17% |
| CN1CCCC(OC(=O)c2cccc(S(=O)(=O)N3CCCCCC3)c2)C1.Cl (stereo not shown) | -28.4% |
| Cc1ccccc1C(=O)Nc1ccc(O)c2c(=O)cc(-c3ccccc3Cl)oc12 | -9.06% |
| O=C1C2C(C(=O)N1/N=C/c1ccc([N+](=O)[O-])o1)C1C=CC2C12CC2 (stereo not shown) | -0.281% |
| CCc1ccccc1NC1=NCC(=O)N1C1CCCC1.Cl | 12.8% |
| CCCCNC(=O)c1ccc2c(c1)N(CC)C(=O)c1ccccc1S2(=O)=O | -16.4% |
| COc1ccc(C(=O)OCC(=O)Nc2cc(C)c(C)cc2[N+](=O)[O-])cc1 | -0.544% |
| O=C(CCCCCN1C(=O)c2cccc3cccc(c23)C1=O)NCc1cccnc1 | 13.1% |
| COc1ccc(S(=O)(=O)N2CCN(Cc3ccc(OC)c(OC)c3)CC2)cc1 | -8.52% |

| Compound | hERG current change (%, negative = inhibition) at 10uM |
| --- | --- |
| CC(C)c1ccc2[nH]c3nc(SCC(=O)NC4CC4)nnc3c2c1 | -20.6% |
| CCOc1ccc(C2C(=O)N(C3CCCCC3)CC(=O)N2CC2CCCO2)cc1OC (stereo not shown) | -3.67% |
| C/C(=N\NC(=S)NCc1ccccc1)c1ccc2ccccc2c1 | 15.9% |
| CN(C1=NS(=O)(=O)c2ccccc21)c1ccc(OC(=O)c2ccncc2)cc1 | -9.07% |
| C[C@@H]1CC2[C@@H]3CC[C@H]4CC(=O)CC[C@]4(C)C3=CC[C@]2(C)[C@@]1(O)C(=O)CO (stereo partly shown) | 8.04% |
| COC(=O)c1sc(-c2ccc(Cl)cc2)cc1NC(=O)/C=C/C(=O)O | 10.3% |
| COc1ccccc1NS(=O)(=O)c1cc([N+](=O)[O-])ccc1N/N=C/c1c[nH]c2ccccc12 | 15.5% |
| CC(C)Oc1ccc(CNC(=O)Cn2ccc3cc(S(=O)(=O)N4CCCC4)ccc32)cc1 | 22.7% |
| CSc1ccc(CN(C)Cc2nc3ccccc3c(=O)[nH]2)cc1 | -26.2% |
| COc1ccc(NS(=O)(=O)c2ccc(C)c(C(=O)O)c2)cc1 | 1.54% |
| Cc1ccc(S(=O)(=O)CC(O)COc2ccc(F)cc2Cl)cc1 (stereo not shown) | -4.12% |
| CS(=O)(=O)Nc1ccccc1N=C(c1ccccc1)c1ccccc1 | -0.393% |
| O=C(Cc1ccccc1)Nc1scc(-c2ccccc2)c1C(=O)N1CCOCC1 | -57.4% |
| Cc1c(-c2ccc(Cl)cc2)[n+](=O)c2c(n1[O-])CCCC2 | 2.47% |
| CCOc1ccccc1OCCn1ncc2ccc(OC)c(OC)c2c1=O | 5.92% |
| CCOc1ccc(CC(=O)OCc2cc(=O)n3cc(Br)ccc3n2)cc1 | -6.01% |
| O=C(Nc1nnc(-c2ccco2)s1)c1ccccc1 | 8.26% |
| COc1ccccc1NC(=O)c1sc2ncn(CC(=O)Nc3ccccc3)c(=O)c2c1C | 17.5% |
| Cc1nnc(SC(C)C(=O)N(C)C2CCCCC2)n1N (stereo not shown) | 8.58% |
| CCOC(=O)C(=O)Nc1sc(C(=O)N(CC)CC)c(C)c1C#N | 16.7% |
| O=C(CN1CCN(S(=O)(=O)c2ccc(F)cc2)CC1)N1CCOCC1 | 9.61% |
| CC(C)CN(C(=O)Cn1c(=O)cnc2ccccc21)C1CCS(=O)(=O)C1 (stereo not shown) | 1.99% |
| CCCCCSc1nc2c(c(=O)[nH]c(=O)n2C)n1CC | 4.59% |
| CCSc1nnc(NC(=O)C(C)(C(F)(F)F)C(F)(F)F)s1 | -1.54% |
| O=S(=O)(c1ccc(SCCOc2cccc(Br)c2)nc1)N1CCCC1 | 5.18% |
| O=C(CCSCCC(=O)NCc1ccco1)NCc1ccco1 | 6.38% |
| CC(=O)N(C)c1ccc(OCC(O)Cn2c(C)nc3ccccc32)cc1 (stereo not shown) | 0.698% |
